Here are results for 1 compound from PubChem BioAssay (NCI).

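1) Cells in 96-well plates. 2) Compound, 48 h, 5 concentrations. 3) Linear interpolation between surrounding doses. 4) Unreached endpoint = highest concentration. TGI is the concentration that stops growth completely.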 For part of its entries the source gives two or more results. This list holds those alone. The source may hold further records. A record mostly stands for its own series of concentrations, which the source does not state; a value can be the end of its range.

The subject of experiment [1] is LOX IMVI melanoma. Put plainly: growth of human tumour cells (NCI), 48 h.
For experiment [2], the system named is NCI-H226 lung. Put plainly: growth of human tumour cells (NCI), 48 h.

For the compound `C[C@@H]1C[C@H]2C(=O)OCC(NC(=O)[C@H](Cc3cc(F)cc(F)c3)NC(=O)Nc3ccc(Cl)cc3F)C(=O)N3CCC[C@H]3C(=O)N3CCCC[C@H]3C(=O)N[C@@H](C)C(=O)N2C1` (some centres not stated), the TGI was 2.13 µM and 21.5 µM in experiment [1]; 32 µM and 1.84 µM in experiment [2].
